From article PMC2267168, “Competition between Delta and the Abruptex domain of Notch” (BMC Developmental Biology, 2008)
Results are given in words; binding and its absence hold for the method and conditions named. Some binding calls cover weakened binding; strength is not graded here. Where a sequence is shown, tags or fusion partners need not be part of it.

T1: N11-20:V5:His (Drosophila, UniProt P07207 447-832)
T1 chain: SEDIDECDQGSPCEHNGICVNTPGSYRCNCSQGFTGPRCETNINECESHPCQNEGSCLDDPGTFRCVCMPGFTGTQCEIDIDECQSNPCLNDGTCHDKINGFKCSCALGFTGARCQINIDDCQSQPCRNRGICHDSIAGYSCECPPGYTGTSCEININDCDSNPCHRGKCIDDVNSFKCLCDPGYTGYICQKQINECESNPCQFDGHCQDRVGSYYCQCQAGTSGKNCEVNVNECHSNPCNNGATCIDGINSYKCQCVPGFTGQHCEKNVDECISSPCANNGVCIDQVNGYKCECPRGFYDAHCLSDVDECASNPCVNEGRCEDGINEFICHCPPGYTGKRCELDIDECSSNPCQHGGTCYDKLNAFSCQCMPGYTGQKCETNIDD

T2: N11-14:V5:His (Drosophila, UniProt P07207 447-605)
T2 chain: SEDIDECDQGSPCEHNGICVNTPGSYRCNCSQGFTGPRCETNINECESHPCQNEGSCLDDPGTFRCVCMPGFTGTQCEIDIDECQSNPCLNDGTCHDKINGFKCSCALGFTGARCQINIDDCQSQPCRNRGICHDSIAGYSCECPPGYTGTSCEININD

T3: EGF repeats 15-20 of Notch (Drosophila) (UniProt P07207)
T3 sequence: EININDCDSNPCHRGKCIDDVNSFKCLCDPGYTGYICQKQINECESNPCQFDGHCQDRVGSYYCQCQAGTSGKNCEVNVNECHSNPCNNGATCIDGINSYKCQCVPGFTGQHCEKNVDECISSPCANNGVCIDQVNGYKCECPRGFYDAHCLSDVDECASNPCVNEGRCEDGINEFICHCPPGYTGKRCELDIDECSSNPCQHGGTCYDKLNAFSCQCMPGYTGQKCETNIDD


Experiments:
N11-20:V5:His = target: T1, N11-20:V5:His; experiment: ELISA; 200 ng His-tagged protein adsorbed to a 96-well plate at 4°C overnight, blocked with 3% BSA; purified Fc fusion added in TBS (10 mM Tris-Cl pH 8.0, 150 mM NaCl, 1 mM CaCl2) for 2 h; detected with HRP anti-human IgG; half-maximal binding ('Kd') fitted with Prizm, said not to be a true Kd; both purified
N11-14:V5:His = target: T2, N11-14:V5:His; experiment: as above
[1] = target: T3, EGF repeats 15-20 of Notch (Drosophila); experiment: ELISA; data not shown: EGF repeats 15-20 tested for the binding site of N21-30:Fc; both purified

Row | binding (N11-20:V5:His) | binding (N11-14:V5:His) | binding [1] | Binder
1 | binds weakly | binds weakly |  | N21-25:Fc (Fc fusion) ETNIDDCVTNPCGNGGTCIDKVNGYKCVCKVPFTGRDCESKMDPCASNRCKNEAKCTPSSNFLDFSCTCKLGYTGRYCDEDIDECSLSSPCRNGASCLNVPGSYRCLCTKGYEGRDCAINTDDCASFPCQNGGTCLDGIGDYSCLCVDGFDGKHCETDINECLSQPCQNGATCSQYVNSYTCTCPLGFSGINCQTNDED
2 | no binding |  |  | N11-20:Fc (Fc fusion, UniProt P07207 447-832) SEDIDECDQGSPCEHNGICVNTPGSYRCNCSQGFTGPRCETNINECESHPCQNEGSCLDDPGTFRCVCMPGFTGTQCEIDIDECQSNPCLNDGTCHDKINGFKCSCALGFTGARCQINIDDCQSQPCRNRGICHDSIAGYSCECPPGYTGTSCEININDCDSNPCHRGKCIDDVNSFKCLCDPGYTGYICQKQINECESNPCQFDGHCQDRVGSYYCQCQAGTSGKNCEVNVNECHSNPCNNGATCIDGINSYKCQCVPGFTGQHCEKNVDECISSPCANNGVCIDQVNGYKCECPRGFYDAHCLSDVDECASNPCVNEGRCEDGINEFICHCPPGYTGKRCELDIDECSSNPCQHGGTCYDKLNAFSCQCMPGYTGQKCETNIDD
3 | no binding |  |  | N1-10:Fc (Fc fusion, UniProt P07207 57-452) LVAASCTSVGCQNGGTCVTQLNGKTYCACDSHYVGDYCEHRNPCNSMRCQNGGTCQVTFRNGRPGISCKCPLGFDESLCEIAVPNACDHVTCLNGGTCQLKTLEEYTCACANGYTGERCETKNLCASSPCRNGATCTALAGSSSFTCSCPPGFTGDTCSYDIEECQSNPCKYGGTCVNTHGSYQCMCPTGYTGKDCDTKYKPCSPSPCQNGGICRSNGLSYECKCPKGFEGKNCEQNYDDCLGHLCQNGGTCIDGISDYTCRCPPNFTGRFCQDDVDECAQRDHPVCQNGATCTNTHGSYSCICVNGWAGLDCSNNTDDCKQAACFYGATCIDGVGSFYCQCTKGKTGLLCHLDDACTSNPCHADAICDTSPINGSYACSCATGYKGVDCSEDIDE
4 |  |  | binds weakly | N21-30:Fc (Fc fusion) ETNIDDCVTNPCGNGGTCIDKVNGYKCVCKVPFTGRDCESKMDPCASNRCKNEAKCTPSSNFLDFSCTCKLGYTGRYCDEDIDECSLSSPCRNGASCLNVPGSYRCLCTKGYEGRDCAINTDDCASFPCQNGGTCLDGIGDYSCLCVDGFDGKHCETDINECLSQPCQNGATCSQYVNSYTCTCPLGFSGINCQTNDEDCTESSCLNGGSCIDGINGYNCSCLAGYSGANCQYKLNKCDSNPCLNGATCHEQNNEYTCHCPSGFTGKQCSEYVDWCGQSPCENGATCSQMKHQFSCKCSAGWTGKLCDVQTISCQDAADRKGLSLRQLCNNGTCKDYGNSHVCYCSQGYAGSYCQKEIDECQSQPCQNGGTCRDLIGAYECQCRQGFQGQNCELNIDD
